“And” between values parts separate entries of the source, which are not always exact repeats. Equal entries are not always repeated. About 800 (1.6%) of roughly 50,000 compounds showed an effect of 50% or more. Some of the results follow.

The values that follow come from PubChem BioAssay AID1240 (Sanford-Burnham Center for Chemical Genomics, 2008).

This assay has as its target Bcl-2-like protein 10 (Homo sapiens) (UniProt Q9HD36). The assay is described as follows: TR3 peptide-Bcl-B binding displacers, biochemical primary FP assay, phenotype converters (AID 1240).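 Further: 0% = Bcl-B with tracer peptide and DMSO and 100% = tracer peptide lacking Bcl-B.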 To be noted: GST-Bcl-B / FITC-TR3 peptide fluorescence polarization; stronger effect = higher value; compound at 3.75 mg/L. Background: Polarisation of emitted light reports the rotation of a fluorescent probe.
UniProt Q9HD36, sequence (Q9HD36 whole entry, looked up): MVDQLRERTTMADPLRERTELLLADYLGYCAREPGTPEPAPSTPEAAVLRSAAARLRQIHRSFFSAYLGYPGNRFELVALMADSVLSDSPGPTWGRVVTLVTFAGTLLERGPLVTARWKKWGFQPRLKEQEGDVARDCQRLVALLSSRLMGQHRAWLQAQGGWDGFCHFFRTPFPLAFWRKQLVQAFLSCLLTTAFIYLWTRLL
With `CC(C)COc1ccc(C(=O)N/C(=C/c2ccc3c(c2)OCO3)C(N)=O)cc1`, the displacement was found to be 2.9%.
Consider `COC(=O)C1=C(C)N(c2ccccc2)/C(=C\c2ccc(OCC(=O)Nc3ccccc3OC)cc2)C1=O`, for which the displacement is 55.5%.
With `Cc1c(N(C(=O)c2ccc(N)cc2)C(C)C)c(=O)n(-c2ccccc2)n1C` the figure was 4.9%; with `Cc1nn(Cc2ccccc2)c(C)c1S(=O)(=O)O`, -6.1%.
With `CCOC(=O)c1ccc(NC(=O)C2CCCN2S(=O)(=O)c2ccc(C)cc2)cc1` (stereo not drawn), the displacement came out at 1.2%.
With `O=C(Nc1ccc(-c2nc3ccccc3[nH]2)cc1)c1ccc(Cl)c(Cl)c1`, the displacement was found to be 3.8%.
On to `O=C1NN(c2ccccc2)C(=O)/C1=C/c1ccc(-c2cccc([N+](=O)[O-])c2)o1`, for which the displacement is -27.5%.
With `CCOC(=O)c1c(NC(=O)CCN2CCCC2)sc2c1CC(C)(C)OC2` the figure was -6.7%; with `CCN(C(=S)NC(=O)c1cccnc1)c1ccccc1`, 10.6%; with `COc1ccc2ccccc2c1/C=C1\SC(=S)N(C2CCCCC2)C1=O`, -2.7%.
With `Cc1ccc(-n2nc3cc(C)c(NC(=O)COc4ccc([N+](=O)[O-])cc4)cc3n2)cc1` the figure was -3.8%; with `C=C(C)c1cccc(C(C)(C)NC(=O)NC2CCCC2)c1`, 1.8%.
With `CC(Nc1cc(N2CCN(C)CC2)ccc1[N+](=O)[O-])C12CC3CC(CC(C3)C1)C2` (stereo not drawn) the figure was 1.9% and 15.8%; with `CCOC(=O)c1c(C)sc(Sc2ccccc2[N+](=O)[O-])c1OC(C)=O`, -6.6%.
With `COC(=O)C(NC(=O)c1ccc(C)cc1)C12CC3CC(CC(C3)C1)C2` (stereo not drawn), the displacement is -3%.
In the case of `O=C(Nc1ccccc1)c1ccccc1NC(=O)c1ccccc1C(=O)O`, the displacement is 0.4%.
Regarding `Cc1ccc(NC(=S)NCCOc2ccccc2Cc2ccccc2)c(C)c1`, the displacement was found to be 9.9%.
With `COc1ccc(-c2cc(C(=O)N/N=C/c3c(C)[nH]c4ccccc34)[nH]n2)cc1`, the displacement was -18.8%.
Then `CC(C)(C)c1cc(N2C(=O)C(=O)/C(=C(/O)c3ccc(Cl)cc3)C2c2cccc([N+](=O)[O-])c2)no1` (stereo not drawn), with 2.7%.
For `O=C1NC(=S)N(c2cccc(Br)c2)C(=O)/C1=C\c1ccc(-c2ccccc2[N+](=O)[O-])o1`, the displacement is 6%.
With `CC(=O)c1cccc(N2C(=O)C3CCCCC3C2=O)c1` (stereo not drawn) the figure was -12.9%; with `O=C(O)CCC(=O)Nc1cc(Cl)cc(Cl)c1`, -9.1%.
As for `Fc1ccc(Cc2cnc(Nc3ccc(F)cc3)s2)cc1`, the displacement is 10.6%.
With `CCN(C(=O)c1sc(NC(=O)c2ccc(Cl)cc2)c(C#N)c1C)C1CCCCC1` the figure was -1.3%; with `COc1ccccc1C(=O)N1CCN(Cc2ccccc2Cl)CC1`, -22.4%; with `O=S(=O)(c1cc(Cl)ccc1Cl)N1CCC(Cc2ccccc2)CC1`, 0%.
With `CCc1cc2c(-c3ccccc3)cc(=O)oc2cc1OC(C)=O`, the displacement was -7.7%.
For the molecule `Cc1cc(C)c(C(=O)c2ccc(C(=O)Nc3cc(C)c(O)c(C)c3)cc2)c(C)c1`, the displacement was -5.7%.
Then `CCc1c(C)sc(NC(=O)c2cccc(Br)c2)c1C(N)=O`, with -4.4%; and `O=[N+]([O-])c1ccc(C=Nc2ccc(OC(F)(F)F)cc2)cc1`, with 8.2%; and `O=C(NCCCO)/C(=C/c1ccc(-c2cccc([N+](=O)[O-])c2)o1)NC(=O)c1ccccc1`, with 8.3%.
Then `O=C(N/C(=C/c1ccc(Cl)cc1)c1nc2ccccc2[nH]1)c1ccccc1`, with -0.7%.
For the molecule `Cc1cc(C)nc(NS(=O)(=O)c2ccc(N=Cc3c(C)[nH]n(-c4ccc(C)c(C)c4)c3=O)cc2)n1`, the displacement was 45%.
As for `CCCCCOC(=O)CSc1nnc(-c2ccc(Cl)cc2Cl)o1`, the displacement was found to be 6.7%.
Then `O=C(O)c1cc(NC(=O)c2cccc(N3C(=O)c4ccccc4C3=O)c2)cc(C(=O)O)c1`, with -19%; and `COc1ccc(C(=O)N2CCN(C3CCCC3)CC2)cc1`, with -11%; and `Cc1cc(Cl)ccc1OCC(=O)O/N=C(\N)c1ccncc1`, with -3.3%.
With `CC(=O)C(Sc1ccc(C)cc1)C(=O)c1ccccc1` (stereo not drawn), the displacement was determined as 12.1%.
In the case of `O=C(Nc1c(F)cc(F)cc1Br)c1cc2n(n1)C(C(F)(F)F)CC(c1ccc(Cl)cc1)N2` (stereo not drawn), the displacement was determined as 2.2%.
In the case of `CCC(Nc1ccc(Br)cc1)C(=O)N/N=C/c1ccc(Cl)cc1Cl` (stereo not drawn), the displacement is 35.4%.
Then `O=C(COc1ccc([N+](=O)[O-])cc1)Nc1cc(Cl)cc(Cl)c1`, with -4.7%.
Regarding `Cc1ccc(N2C(=O)CC(Sc3ccc4ccccc4c3)C2=O)cc1` (stereo not drawn), the displacement is -0.8%.
With `COc1ccccc1NC(=O)c1c(N)sc2c1CCC2` the figure was 13.9%; with `Cc1oc2cc(Br)c(OC(=O)C(C)(C)C)cc2c1C(=O)OC(C)C`, 9%.
For the molecule `Cc1ccc2sc(-c3ccc(NCc4ccc5c(c4)OCO5)cc3)nc2c1`, the displacement is -0.2%.
Then `COC(=O)c1c(C)oc2ccc(OCc3cccc(Br)c3)cc12`, with 9.3%; and `CN(C)S(=O)(=O)c1ccc(C(=O)Nc2nc(-c3ccccc3)c(-c3ccccc3)s2)cc1`, with 27.8%; and `COc1ccc(Cl)cc1S(=O)(=O)n1ccnc1C(C)C`, with -12.1%.
Then `Clc1ccc(-c2noc(-c3ccc(-c4ccccc4)cc3)n2)cc1`, with -1.7%; and `O=C1C2C3c4ccccc4C(CO)(c4ccccc43)C2C(=O)N1c1ccc(Cl)c(Cl)c1` (stereo not drawn), with 0.4%; and `O=C(NC(=S)Nc1nc(-c2ccccc2)cs1)c1ccco1`, with 13.5%.
Then `CCOC(=O)C(CCOc1ccc(C)cc1C)C(=O)OCC`, with -5.7%.
As to `O=C(/C=C/c1cn(-c2ccccc2)nc1-c1ccc(Cl)cc1)c1cccs1`, the displacement is 9%.
Then `Cc1cc(C)cc(NC(=O)C(=O)NCc2cccnc2)c1`, with 4.8%; and `O=C1C(=Cc2ccc(Oc3ccc([N+](=O)[O-])cn3)cc2)C(=O)c2ccccc21`, with 4.6%; and `N#C/C(=C\c1ccc(-c2ccc3c(c2)COC3=O)o1)c1nc2ccccc2[nH]1`, with 58.6%.
On to `O=C(O)CCCCCN1C(=O)C(=O)/C(=C(/O)c2ccc([N+](=O)[O-])cc2)C1c1ccc(F)cc1` (stereo not drawn), for which the displacement was -0.4%.
On to `NC(=O)C1(c2ccccc2)CCCN1C(=O)c1ccccc1Br` (stereo not drawn), for which the displacement is -1.3%.
Regarding `CCOC(=O)c1sc2nc3n(c(=O)c2c1C)CCC3`, the displacement came to 23.2%.
Take `C=CCc1cccc2cc(C(=O)N3CCN(C)CC3)c(=O)oc12`: the displacement worked out at 1.9%.
Regarding `O=C(Cn1cnc([N+](=O)[O-])n1)Nc1cc(Sc2ccc(Br)cc2)cc([N+](=O)[O-])c1`, the displacement was -0.7%.
With `COC(=O)c1cc(NC(=O)c2cccc(OC(C)C)c2)cc(C(=O)OC)c1` the figure was 0.7%.
As for `CCN(CC)CCN1C(=O)C(O)=C(C(=O)/C=C/c2ccccc2)C1c1ccc(Cl)cc1` (stereo not drawn), the displacement was determined as 15.9%.
As for `CS(=O)(=O)N(Cc1ccc(C(=O)Nc2ccc(F)cc2)cc1)c1ccccc1`, the displacement came to 5.7%.
For `COc1ccc(C(=O)/C=C\Nc2ccc(Cl)cn2)cc1`, the displacement is -23.9%.
Take `CC(=O)/C(C=Nc1cc(C(F)(F)F)ccc1Cl)=C(\C)O`: the displacement is -4.5%.
`COc1ccc(S(=O)(=O)N=C2C=CC(=NS(=O)(=O)c3ccc(OC)cc3)C=C2)cc1`: the displacement was -1.8%.
For the molecule `Cc1ccc(-c2[nH]n3c(=O)cc(-c4ccc([N+](=O)[O-])cc4)nc3c2C)cc1`, the displacement came to 7.6%.
As for `O=C(/C=C/c1cccc(C(F)(F)F)c1)Nc1ccc(Cl)cc1`, the displacement stood at 13.9%.
With `CCC1=NN2C(=N)/C(=C/c3ccc(Br)cc3)C(=O)N=C2S1` the figure was 4%; with `N#Cc1cc2c(nc1SCC(=O)Nc1ccc(S(N)(=O)=O)cc1)CCCC2`, 4.3%; with `O=C(Nc1cnc2ccccc2c1)C1COc2ccccc2O1` (stereo not drawn), -15.1%.
Then `COc1cccc(C(=O)N2CCOCC2)c1`, with 2.3%; and `COc1ccccc1NC(=O)c1ccc(N(Cc2ccccc2)S(C)(=O)=O)cc1`, with -6.5%; and `Cc1nnc(/N=C2\C(=O)Nc3ccccc32)s1`, with -6%.
For the molecule `COC(=O)c1ccccc1NC(=O)CN(c1cccc(OC)c1)S(=O)(=O)c1ccccc1`, the displacement came out at 2.4%.
With `Cc1cccc(NCCC(=O)c2ccc([N+](=O)[O-])cc2)c1C` the figure was -13%; with `COc1ccccc1N1C(=O)c2ccc(C(=O)Nc3ccc(Sc4ccc([N+](=O)[O-])cc4)cc3)cc2C1=O`, 6.8%; with `Cc1ccc(N=Cc2ccc(C#N)cc2)cc1I`, 0.3%.
As for `O=C(CC1SC(=Nc2ccccc2)N(c2ccccc2)C1=O)Nc1cccc(Cl)c1` (stereo not drawn), the displacement was -16.4%.
With `Cn1c(=O)c([N+](=O)[O-])c(N2CCN(C(c3ccccc3)c3ccccc3)CC2)c2ccccc21` the figure was 9.5%; with `O=C1NC(=S)S/C1=C/c1cc(I)c(O)c(I)c1`, -96.1%; with `CCOc1cc(/C=N\n2cnnc2)ccc1OCCOCCOc1ccc(C)cc1`, -3.1%.
Regarding `O=C(NCCO)/C(=C\c1ccco1)NC(=O)c1cccs1`, the displacement was -6.8%.
With `Cc1c(NC(=O)c2cc3cc([N+](=O)[O-])ccc3oc2=O)c(=O)n(-c2ccccc2)n1C` the figure was 1.1%; with `O=C(Nc1sc2c(c1C(=O)Nc1ccc(Cl)cc1)CCCC2)c1ccc([N+](=O)[O-])cc1`, 13.2%.
With `O=C1C2C3C=CC(C3=C(c3ccccc3)c3ccccc3)C2C(=O)N1c1cc(C(F)(F)F)ccc1Cl` (stereo not drawn) the figure was -9.1%.
Then `CSc1ccccc1NC(=O)c1ccc([N+](=O)[O-])cc1`, with 10.7%; and `COc1cc2c(C)nc3c(c(C)nn3-c3ccccc3)c2cc1OC`, with 59.5%; and `COCCNC(=O)CN(c1ccc(C)cc1)S(=O)(=O)c1ccc(OC)c(OC)c1`, with 5.4%.
On to `CCOC(=O)c1c(C)nc2cc(C)ccn12`, for which the displacement amounted to 9.8%.
With `O=C(COc1ccc2ccccc2c1Br)c1ccc(Br)cc1` the figure was 4.5%; with `CN1C(=O)C(=Cc2cc([N+](=O)[O-])ccc2O)C(=O)N(C)C1=O`, 16.6%.
Then `O=C(CSc1nnc(-c2ccncc2)n1-c1ccccc1)NCc1ccco1`, with -0.5%; and `COC(=O)Nc1ccc(S(=O)(=O)N2CCN(C)CC2)cc1`, with 2.5%; and `O=c1oc2cc(OCc3ccc([N+](=O)[O-])cc3)ccc2c2c1CCC2`, with -2.5%.
With `Cc1ccc(-c2[nH]n3c(=O)c(Cl)c(C)nc3c2C)cc1` the figure was -9%; with `O=C(NCC1COc2ccccc2O1)c1ccccc1` (stereo not drawn), 2.1%; with `Cc1onc(-c2ccccc2Cl)c1C(=O)Nc1ccc2c(c1)OCO2`, 0.2%.
On to `Cc1cccc(NC(=O)C2CC(=O)N(c3ccccc3)C2)c1` (stereo not drawn), for which the displacement was -3%.
As to `O=C(O)CCC(=O)NNc1ccccc1[N+](=O)[O-]`, the displacement was -8.9%.
Regarding `Cc1ccc2nc(-c3ccc(NC(=O)C4CCC(C)(C(=O)O)C4(C)C)cc3)sc2c1` (stereo not drawn), the displacement is -5.5%.
Then `CCOC(=O)C1=C(C)N=c2s/c(=C\c3ccc(OC(C)=O)cc3OC(C)=O)c(=O)n2C1c1ccccc1` (stereo not drawn), with -9.4%.
